Experimental data from PubChem BioAssay (NCI).
“And” between values parts separate entries of the source, which are not always exact repeats. Identical values can stand only once.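 Briefly, cells in 96-well plates were exposed to five compound concentrations for 48 h, and endpoints were estimated by linear interpolation. The concentration for 50% growth inhibition is given as GI50. TGI: total growth inhibition.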

System: NCI-H322M lung
Test: NCI tumour cell line growth inhibition, 48 h

Compared with COc1cc2c(c(OC)c1OC)C(=O)[C@H](Br)[C@H]2NC(=O)NCCCl, COc1cc(-c2cc(/C=C3\C(=O)Nc4ccccc43)[nH]n2)cc(OC)c1OC is lower in TGI: over 100 µM for the first, 18.6 µM for the second.

Going from CCCCCCCCCCCCn1[nH]c(C)c(C(=S)SCCCCCCCC)c1=O to CCCCCCCCCCCC(=O)c1c(O)cccc1O, the TGI falls from over 100 µM to 49.5 µM.

Compared with CCc1cccc(CC)c1NC(=O)C1=C(C)NC(C)=C(C(=O)Nc2c(CC)cccc2CC)C1c1ccc2c(c1)OCO2, CCOC(=O)c1[nH]c(CN(C)Cc2[nH]c(C(=O)OCC)c(C)c2C(=O)OCc2ccccc2)c(C(=O)OCc2ccccc2)c1C is higher in TGI: 30.8 µM for the first, over 100 µM for the second.

Compared with C/C(CC(=O)NC1=CC=C(NC(=O)C/C(C)=N\Nc2ccccc2)CC1)=N/Nc1ccccc1, CC(O)C(O)C(O)C(/C=N\Nc1ccccc1)=N/Nc1ccccc1 (stereo unspecified) is lower in TGI: over 100 µM for the first, 27.6 µM for the second.

Compared with O=S(=O)(NCCNc1cc(-c2cn(-c3ccccc3)nc2-c2cccc(O)c2)ccn1)c1ccc(Cl)cc1, Nc1cc(-c2ccc(Cl)cc2)nn1-c1nc2ccccc2nc1-c1ccccc1 is higher in TGI: 29.6 µM for the first, over 100 µM for the second.

First: Nc1ccc(Oc2ccc(C34CC5CC(C3)CC(c3ccc(Oc6ccc(N)cc6)cc3)(C5)C4)cc2)cc1
Second: COc1cc2ccc1OCc1cccc(n1)COc1ccc(cc1OC)C=Nc1ccc(cc1)-c1ccc(cc1)N=C2
The TGI of the first is lower: 13 µM for the first, over 100 µM for the second.

C/C1=C\C/C=C(\C)[C@H]2CC(CC/C(C)=C/CC1)[C@](C)(C=O)O2 and COc1ccc2c(c1)CC[C@@H]1C2CC[C@]2(C)C(=O)N(N)C(=O)CC12 (stereo partly specified) cannot be ordered by TGI: over 100 µM for the first, over 100 µM for the second.

c1cc(-c2cn[nH]c2)cc(-c2cn[nH]c2)c1 and C/C(N=Nc1nc2ccccc2[nH]1)=C1/C=CC=CN1O cannot be ordered by TGI: over 100 µM for the first, over 100 µM for the second.

COc1ccc(C(=O)N(C(=O)N2CCN(c3ccccc3)CC2)S(=O)(=O)c2ccccc2)cc1 and COc1ccc(NC(=O)CC(=O)N/N=C/c2ccc(N(CCC#N)S(=O)(=O)c3ccccc3)cc2)cc1 cannot be ordered by TGI: over 100 µM for the first, over 100 µM for the second.

First: COC1C(O)C(C)OC(OC2CC3CCC4C(CCC5(C)C(C6=CC(=O)OC6)CCC45O)C3(O)C(OC(C)=O)C2)C1O (stereo unspecified)
Second: CO[C@@]12C[C@H]3[C@@H]([C@@H](O)[C@@H](OC(=O)/C=C/c4ccccc4)[C@@]4(O)C(C)(C)CCC[C@]34C)[C@@H](C)C1=CC(=O)O2
The TGI of the first is 4.6-fold lower: 10.1 µM for the first, 46.7 µM for the second.

First: Cc1ccc(NC(=O)C2C(=O)N(c3ccc(C)c(C)c3)C(=O)/C2=N\NC(N)=S)cc1C (stereo unspecified)
Second: O=C(Nc1cccc(O)c1)c1cccc(NC2=C(Cl)C(=O)N(Cc3ccccc3)C2=O)c1
The TGI of the first is higher: over 100 µM for the first, 24.2 µM for the second.

COC(=O)NC(=O)c1cn(CCCOC(=O)CCCCCCCCC(=O)OCCCn2cc(C(=O)NC(=O)OC)c(=O)[nH]c2=O)c(=O)[nH]c1=O and CNC(=O)CNC(=O)C(Cc1ccc(NC(=O)CCCCC(C)=O)cc1)NC(=O)C(CCC(=O)OCc1ccccc1)NC(=O)OC(C)(C)C (stereo unspecified) cannot be ordered by TGI: over 100 µM for the first, over 100 µM for the second.

Compared with CCCCCCC#CC#Cc1cccc(=O)o1, Cc1cc(N(CCC#N)CCC#N)ccc1N=Nc1cccc(Cl)c1 is higher in TGI: 30.8 µM for the first, over 100 µM for the second.

Cn1nc2ccc3nccc(N(CCO)CCO)c3c2n1 and Cc1[nH]nc2c1C(=O)C=C(N(CCO)c1ccccc1)C2=O cannot be ordered by TGI: over 100 µM for the first, over 100 µM for the second.

Compared with COC(=O)OCc1ccc2c(c1)C(=O)c1c-2n(CCCBr)c(=O)c2cc([N+](=O)[O-])ccc12, Cn1c2ccccc2c(=O)c2c([N+](=O)[O-])ccc(NCCN)c21 is lower in TGI: over 100 µM for the first, 22.2 µM for the second.

O=c1c2ccccc2[nH]c(=S)n1-c1ccc(N=Nc2cccc3cc(O)ccc23)cc1 and COc1ccc(N=Nc2ccc3oc(=O)c(C(=O)Nc4ccc(Cl)cc4)cc3c2)cc1 cannot be ordered by TGI: over 100 µM for the first, over 10 µM for the second.

Cc1cc(C)c2c(SCc3ccc(Cl)cc3Cl)nc(N)nc2n1 and COc1cc(Cl)c2c3c(c(C(=O)c4ccccc4)oc13)CCC2 cannot be ordered by TGI: over 100 µM for the first, over 100 µM for the second.

O=C(Cn1c2ccc(Br)cc2c2nc3ccccc3nc21)N/N=C/c1ccccc1 and Cn1c2ccccc2c2nc3ccccc3c(Cl)c21 cannot be ordered by TGI: over 100 µM for the first, over 100 µM for the second.

COC(=O)C1=C(O)CCCC(CCC(C)=O)=C1 and CCO/C(O)=C(/C(=N)N1CCCC1)C(=O)Nc1ccc(F)cc1 cannot be ordered by TGI: over 100 µM for the first, over 100 µM for the second.

NCCP(=O)(O)O and CCOC(=O)C(=O)NCCCN1CCOCC1 cannot be ordered by TGI: over 100 µM for the first, over 100 µM for the second.

Clc1ccc(C=NC23CC4CC(CC(C4)C2)C3)cc1Cl and COc1ccc(N2C(=O)[C@@H]3[C@H](C2=O)c2[nH]c4ccccc4c2C2CCC(C(C)(C)C)C[C@@H]23)cc1 (stereo partly specified) cannot be ordered by TGI: over 10 µM for the first, over 100 µM for the second.

Going from Cc1ccccc1NC(=O)CC(=O)N1N=C(N2c3ccccc3Sc3ccccc32)CC1c1ccccc1 (stereo unspecified) to NC(=S)N1N=C(c2ccccc2O)CC1c1ccccc1 (stereo unspecified), the TGI falls from over 100 µM to 54.4 µM.

First: C=C1CC2(CCCC3(CC(=C)C(=O)O3)C2(C)C)OC1=O (stereo unspecified)
Second: CC1(C)CC(=O)C(=[N+]=[N-])C(=O)C1
The TGI of the first is lower: 27.4 µM for the first, over 100 µM for the second.

First: N#Cc1c(N)nc2c(c1-c1ccc(Br)cc1)CSc1ccccc1-2
Second: O=C1/C(=C\c2ccc(F)cc2)CCOc2c1ccc1ccccc21
The TGI of the first is higher: over 100 µM for the first, 60 µM for the second.

Compared with C=CCC(N[C@H](CO)c1ccccc1)c1cn(S(=O)(=O)c2ccc(C)cc2)c2ccccc12 (stereo partly specified), O=C1/C(=C/c2ccccc2)CCc2ccccc21 is 1.5-fold lower in TGI: 44.8 µM for the first, 29.3 µM for the second.

First: C[N+](C)(C)CC(=O)N/N=C(/CC1OC(=O)c2ccccc21)c1ccccc1O (stereo unspecified)
Second: C[S+](C)CC(=O)c1ccc2c(c1)Sc1ccccc1O2
The TGI of the first is higher: over 100 µM for the first, 28.4 µM for the second.

Going from CCc1c(O)c2c(c(O)c1C(C)=O)C(=O)c1c(cc(O)c(C(=O)O)c1C(=O)O)C2=O to O=C1c2ccn(CCCCN3CCCCC3)c2C(=O)c2c1c(O)c1ccccc1c2O, the TGI falls from over 100 µM to 23.3 µM.

C[C@]12C3CC[C@@]4(CO)C[C@]3(CCC1[C@](C)(C(=O)O)CC[C@@H]2O)CC4=O (stereo partly specified) and CSc1nc2c(c(O)c(C)c(=O)n2C2OCC(OC(C)=O)C(OC(C)=O)C2OC(C)=O)c(=O)n1C (stereo unspecified) cannot be ordered by TGI: over 100 µM for the first, over 100 µM for the second.

Compared with O[C@H]1[C@H]2[C@H](O)C[C@H](CCOCc3ccccc3)CN2C[C@H]1O, CN1CCN(CCNc2ccc(CO)c3sc4ccccc4c(=O)c23)CC1 is lower in TGI: over 100 µM for the first, 17.5 µM for the second.

Cc1nc2c(n1CCN(C)C)C(=O)c1ccccc1C2=O gave a TGI of 88.3 µM.

Going from O=S(=O)(NCCNc1cc(-c2cn(-c3ccccc3)nc2-c2cccc(O)c2)ccn1)c1ccc(Cl)cc1 to O=C(Nc1cccc(O)c1)c1cccc(NC2=C(Cl)C(=O)N(Cc3ccccc3)C2=O)c1, the GI50 rises from 3.85 µM to 11.9 µM (3.1-fold).

Compared with C/C1=C\C/C=C(\C)[C@H]2CC(CC/C(C)=C/CC1)[C@](C)(C=O)O2, CO[C@@]12C[C@H]3[C@@H]([C@@H](O)[C@@H](OC(=O)/C=C/c4ccccc4)[C@@]4(O)C(C)(C)CCC[C@]34C)[C@@H](C)C1=CC(=O)O2 is lower in GI50: over 100 µM for the first, 5.1 µM for the second.

Compared with CCCCCCC#CC#Cc1cccc(=O)o1, COC(=O)OCc1ccc2c(c1)C(=O)c1c-2n(CCCBr)c(=O)c2cc([N+](=O)[O-])ccc12 is higher in GI50: 15.3 µM for the first, over 100 µM for the second.

C=CCC(N[C@H](CO)c1ccccc1)c1cn(S(=O)(=O)c2ccc(C)cc2)c2ccccc12 (stereo partly specified) and O=C1c2ccn(CCCCN3CCCCC3)c2C(=O)c2c1c(O)c1ccccc1c2O are within 1.5-fold of each other in GI50: 11.1 µM for the first, 9.32 µM for the second.

First: COc1cc(-c2cc(/C=C3\C(=O)Nc4ccccc43)[nH]n2)cc(OC)c1OC
Second: C[C@]12C3CC[C@@]4(CO)C[C@]3(CCC1[C@](C)(C(=O)O)CC[C@@H]2O)CC4=O (stereo partly specified)
The GI50 of the first is lower: 4.74 µM for the first, over 100 µM for the second.

With O=C1C(=O)c2ccccc2C(O)=C1CC=C(Cl)Cl the GI50 was 12.3 µM and 17 µM.

O=C1C(=O)c2ccccc2C(O)=C1CC=C(Cl)Cl was tested, and the TGI was > 77.9 µM and 211 µM and > 100 µM.
